The source gives no read counts; variants with many changes may rest on few reads.
B1: LINE1-mini (parent)
chain: GGCAGAGCUCAACACAGCGUGGCAAAGUGGCUGUGGCUAGACUGCC

Variants of: B1
Test: self-cleavage, relative activity (ratio to wild type); higher = more cleavage; in vitro, sequencing; the parent is a self-cleaving ribozyme

Row | Variant | self-cleavage
1 | C10A A12G C42U | 0
2 | G36U C42G C45G | 0
3 | G1C A16G A25U | 0.02
4 | G7A G36U G40C | 0.19
5 | G29C C31G G35U G40C | 0.03
6 | C10U G17A C37U C42G | 0.07
7 | C8U A26C C31U | 0.1
8 | C3U G35C C46A | 0.04
9 | C13A G27C G44C | 0.09
10 | A6G C10G A14G G19C U20C | 0.01
11 | A4U G19A C37U | 0.31
12 | C23U C37A C42G C45A | 0.01
13 | G2A G5C U34G | 0.03
14 | G1A G7A G19A | 2.93
15 | G19C G27U G29A | 1.37
16 | G1U G5C C10G G30U G36U | 0.01
17 | G2U C8G G27C C37G C45A | 0.01
18 | A6G C18G G29U | 0.13
19 | C3G A4G C18A G22U | 0.08
20 | C18G G29A G40A | 0.12
21 | A26C G30C C31A G40C | 0.01
22 | G27A G35A C42A C45U | 0.07
23 | C3A A26U C37G C46U | 0.24
24 | G1C A11C G29C | 0.01

Row | Variant | self-cleavage
25 | C10A A11U A12G C18G G19C G33A | 0.01
26 | G5C G7U G33U C45U | 0.17
27 | G7U A12U G19U C23U A24C A39G | 0.01
28 | A26C G30C G36C U38A | 0.03
29 | C13U G35A G36A A41G | 0.13
30 | G5U C10A A25C | 0.06
31 | U20C G21C U43C | 0.08
32 | G2C G36U U38A | 0.05
33 | A6U G22A U28A | 0.22
34 | C10G C15A C18U A26C C31A | 0.04
35 | A14G A16U G17U C18G A39U | 0.06
36 | G1C C8A A24U U32C C42A | 0.06
37 | A6U C10U G29A | 0.1
38 | G5C G27U U32C | 0.02
39 | C10A U28G C31A | 0.03
40 | C10G G29U C37A | 0
41 | A11G G27C G30A G33C A39G A41U | 0.01
42 | U9A A24U U34C | 0.02
43 | C10U A16U A41U U43C | 0.02
44 | C3A G7C A12U U28A G30U G33U C46G | 0.02
45 | C8A C10A U28G U34G G35U G36C A39C G40A | 0.04
46 | A11U C18A C31U G33A C45A | 0
47 | G2U G17U A25U G30C | 0.03
48 | G5C A11C A26C C37G | 0.01

Row | Variant | self-cleavage
49 | G19C G22C A41C | 0.04
50 | G1C A41G G44C | 0.02
51 | G5U U20A G21U G29U | 0.01
52 | G5A C15A A26U | 0.16
53 | G21C U43G C45A | 0
54 | U9A C10A G27A G36A A41U | 0.01
55 | G35C A39C C42A | 0.08
56 | U9G G22C A26U | 0.05
57 | G2C C3U C37U | 0.02
58 | G1A G2C C8A A12C C18A A26U G29U U38C | 0.01
59 | G5C C8U G40U U43G | 0.18
60 | G7A G33A A41C | 0.06
61 | A11U A26U G36A | 0.01
62 | U9G U38G C42G | 0.01
63 | G2U G5C G21C A25G U32A G44U | 0
64 | A11G G17A U28C C37G U43C | 0
65 | G19A G21A U28G G30U | 1.08
66 | A12U C18G U20A U28A C45A | 0.08
67 | G2U C8U C10U G35C A39U | 0
68 | C3G A11G C18G C23A | 0.03
69 | A11U C15U C23U G30C G40U | 0.01
70 | C3A G7A G35C | 0.49
71 | U28C A41G C45A | 0.06
72 | G7C C10G A24U A25G A39U | 0

Row | Variant | self-cleavage
73 | C3U G36A C37U | 0.06
74 | G5U C13G A16C A26G G35A C45G | 0.03
75 | G2A A11U A12U | 0.13
76 | G7U U28A G36U | 0.03
77 | G7A C31G U32G C37G | 0.01
78 | A6G C10U A39C C42U | 0.06
79 | C3U G21C G29C G33A C45A | 0.03
80 | C8A C10A G19A | 0.01
81 | G5A U9A U20G G40U G44U | 0.28
82 | G17C C18A G19A U32C | 0.16
83 | C15G U20C C23A U34G | 0.02
84 | G19U A24G U32C U43G C46A | 0.92
85 | A6G A11G G17U C23U G44C | 0.01
86 | G2C A24G U28A G35U G36C | 0.08
87 | G2A C15G G21C | 0.04
88 | G1U C10U A16C | 0.06
89 | C3A C10G A11G U34A A41C C42A G44A | 0.01
90 | A11G A14C C15G C18G G29U G36A U43A | 0
91 | G5A C10A C23U G30C C37U | 0.01
92 | C3G A25U A26G U34G U38A C46A | 0.09
93 | C18U U32A C37U C42U | 0.03
94 | A4G G7C U9G C10A C15A C23U | 0.01
95 | G7C C18G U43G | 0.05
96 | C13U C18G C23U | 0.04

Row | Variant | self-cleavage
97 | G2U C3U G30C G33A G40A | 0.04
98 | G2U C18U G27U U43A C46A | 0.01
99 | G7C U20A A41U C42U | 0.14
100 | U20A G29U G40C | 0.04
101 | G5A A14U G17U | 0.04
102 | G1C U28A U38A | 0.05
103 | G2A C3A G33C C37U | 0.29
104 | C15A G17A U34C | 0
105 | A11U G29A G44U | 0.04
106 | A4G G29U C46A | 0.05
107 | G5U G22A A24C A25U U32G A39U | 0.28
108 | G7A C8G G17C U34C G36C | 0.04
109 | G1U G19A C31U G33C | 0.02
110 | C3A C15A G36C | 0.42
111 | A4U C8G G17C | 0.03
112 | C3A G27A C31U | 0.35
113 | A11U G33A G44C C45G | 0.02
114 | G2A G19U A39C | 0.21
115 | C3U G21C A25U G36U C42A G44U | 0.3
116 | C15A C23A G36U U43G | 0
117 | C18G G21C C23U A25G | 0.08
118 | U9C C18U U28C A41G C46U | 0.02
119 | G2C A4G A16G G30A | 0.02
120 | G1U G5A C15U C23A | 0.22

Row | Variant | self-cleavage
121 | U9C C13G G33C G44C | 0.01
122 | A6C C8U G30A G36U | 0.51
123 | G21A A26G G30U A41C | 0.05
124 | A6G G7C G33U | 0.03
125 | G5U C8U C18G | 0.19
126 | C10A A14G U20A G21U | 0.04
127 | G22U G33A C45U | 0.14
128 | G2C U9G C13U C31G C46G | 0.02
129 | G2A U9G A14U C15G U38G C45A | 0.12
130 | C10A G17A G19C A26U C42G G44U | 0.02
131 | C8G A14G C15U U20G G44A | 0.21
132 | G1C A25C U38G G44C | 0
133 | G7A G40A G44A | 0.11
134 | G7U C15A A41G | 0.17
135 | C3A G5U U34A G40U | 0.08
136 | U20G U38C A39U C42U | 0.08
137 | C3A C10G G22C | 0.04
138 | G5A U20A G35U U43G | 0.02
139 | U28G A41U C42G | 0.03
140 | G1C A4C C46A | 0.04
141 | A4U U32A G35A A39G | 0.09
142 | A16G G19C A26G | 0.05
143 | G22A A26U C31A G35C | 0.08
144 | G19A G36U U38A C42G | 0.01

Row | Variant | self-cleavage
145 | C15A G21C A25G G35C G40C | 0.02
146 | C3U A6G G7A U32G U34C | 0.4
147 | A6C A14U G17U A24U A26C U28C | 0.1
148 | C13G U28C G29U | 0.11
149 | C10G G30A C46A | 0.35
150 | A12G G19U C45U | 0
151 | C10A C15G U43C | 0.02
152 | G5U G21U G29U | 0.06
153 | C13G A24C A41C | 0.08
154 | A4G G22A G35A | 0.11
155 | C3A G30U G33C | 0.46
156 | G17A G30C G33U G40U A41U | 0.05
157 | A14U G19C U28A G36A | 0
158 | G2C C3A A16U C18U G36A | 0.1
159 | G5C A12U C13U | 0.06
160 | G1A G2A U9A G19C G22C A26U G33A | 0.24
161 | G2A A11G A12C G44U | 0.01
162 | G5U A14U G40A C46U | 0.04
163 | C3G A11G C45A | 0.03
164 | G30U C37U C42U G44U | 0
165 | G2C C10G A14U G30C C46A | 0
166 | C3A G21U G22A C37G C46U | 0.38
167 | A12U G27U G30C | 0.19
